# Laboratory results published in PubChem BioAssay AID1745849 (National Center for Advancing Translational Sciences (NCATS), 2022).
# Among all 2,100 compounds or so, about 320 (15%) were called active. The shares of active, inactive and inconclusive entries below differ from those in the screen. Calls follow the shape of the dose curve; as a rule, active = well fitted cell-killing curve with a large enough effect; inconclusive = small, poorly fitted or top-dose-only effect, or effect the other way; inactive = flat fitted curve, though single readings scatter. Where the call is inconclusive, the potency comes from a doubtful curve fit.
# Experiment: Viability Counterscreen for CMV-Luciferase Assay of Inhibitors of ATXN expression; also: nearly all actives have a fitted effect of over 55% in size
# Conditions: HEK-293 CMV-luciferase cells viability, protease fluorescence, 24 h
# Summary of the method: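 Fluorescence from cleaved Gly-Phe-AFC (25 uM final, 30 min, ex 405/em 540 nm) reported viability, and the luciferase signal of the same CMV-reporter HEK-293 wells was read 5 min after SteadyGlo addition. Dosing lasted 24 hr.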
# Potency is read from the fitted curve at half-maximal effect; tags tell the direction and shape of the fitted curve.
row,Structure (SMILES),Potency
1,O=C1C=C(NCCc2cc(Br)c(O)c(Br)c2)C(=O)c2ncccc21,active: 8.91 µM
2,c1ccc(-c2nnc(-c3ccccn3)nc2NC2CCCCC2)cc1,"inconclusive: 1.41 µM [cytotoxic, full curve, poor fit]"
3,Cc1ccc(C(=O)N/C(=C/c2ccc(-c3ccc([N+](=O)[O-])cc3)o2)C(=O)NCCCN(C)C)cc1,"inconclusive: 15.8 µM [rising, partial curve]"
4,Cc1ccc(C(=O)N(CCCN(C)C)c2nc3ccc(Cl)cc3s2)cc1C,active: 22.4 µM
5,COc1cc2c3nnc(-c4ccc(F)cc4)c-3cn(Cc3ccc(C)cc3)c2cc1OC,"inconclusive: 22.4 µM [rising, partial curve]"
6,CCOC(=O)c1c(CSc2nc(C)cc(C)c2C#N)n(C)c2cc(Br)c(OC(C)=O)cc12,"inconclusive: 12.6 µM [cytotoxic, partial curve, poor fit]"
7,O=C(COc1ccc(Cl)cc1)N/N=C/c1cccc2cccnc12,"inconclusive: 15.8 µM [cytotoxic, partial curve, poor fit]"
8,Cn1c2ccccc2c(=O)c2c(=O)n(C3CCCCC3)c(-c3cccs3)nc21,"inconclusive: 39.8 µM [cytotoxic, single point]"
9,COc1cc(/C=N\NC(=O)CC#N)ccc1OC/C=C/c1ccccc1,"inconclusive: 31.6 µM [cytotoxic, single point]"
10,CC(C)n1c(NCc2cc(Cl)ccc2O)nc2ccccc21,inactive
11,CN1CCN(CCNC(=O)c2ccc3nc(-c4ccc(F)cc4)c(-c4ccc(F)cc4)nc3c2)CC1,"inconclusive: 14.1 µM [cytotoxic, partial curve, poor fit]"
12,CCc1cc[n+](C2=C([O-])c3ccccc3C(=O)/C2=N\S(=O)(=O)c2cccs2)cc1,active: 17.8 µM
13,CN(C)C(=O)c1cccc(-c2cnc3c(NC=O)cc(-c4ccccc4N(C)C)cn23)c1,"inconclusive: 3.98 µM [rising, partial curve]"
14,Cc1ccccc1N=Nc1ccc(O)c2ncccc12,active: 7.94 µM
15,CC(=NNc1nc2ccccc2o1)c1ncccn1,"inconclusive: 0.316 µM [cytotoxic, full curve]"
16,O=c1c2c(nc3c(-c4cccc(Br)c4)c[nH]n13)CCCC2,active: 10 µM
17,Cc1ccc(NC(=O)CNc2cccc(Br)c2)cc1S(=O)(=O)N1CCOCC1,"inconclusive: 2.82 µM [cytotoxic, single point]"
18,Oc1c(Cl)cc(Cl)cc1/C=N/Nc1ncc(Br)cn1,"inconclusive: 1.41 µM [cytotoxic, full curve]"
